We go through 39 variants from the RNAGym collection of RNA variant scans (doi:10.7554/elife.90254).

Read counts are not given, so values of variants with three or more changes are uncertain.

First the molecules themselves.
B1: LINE1-full (parent)
chain: UACGUAGGUGGUUUUCCCCUGAUAGUGCUAAGGGGGCCUGGAAGUUUGGACUGGGCAGAGCUCAACACAGCGUGGCAAAGUGGCUGUGGCUAGACUGCCUCUCUGGAUUCCUCGUCACUCAGCAGGGCAUCUCUGAGAGAAAUGCC

This series covers variants of B1. The series can be described thus: self-cleavage, relative activity (ratio to wild type); higher = more cleavage; in vitro, sequencing; the parent is a self-cleaving ribozyme.
Take UACGUAGGUGGUUUUCCCCUGAUAGUGCUAAGGGGGCCUGGAGGUUGGGACUGGGCAGAGCUCAACACAGCGUGGCAAAGUGGCUGUGGCUAGACUGCCUCUCUGGAUUUCUCGACACUCAGCAGGGGAUCUCUGAGAGAAAUGCC [A43G U47G C110U U115A C128G]: the self-cleavage was determined as 1.23. For UACGUAGGUGGUUUUCCCCUGAUAGUGCUAAGGGGGCCUGGAGGUUUGGACUGGGCAGAGCUCAACACAGCAUGGCAAAGUGGCUGUGGCUAGACUGCCUCUCUGGAUUCCUCGUCACUCAGCAGGGCGUCUCUGAGAGAAAUGCC [A43G G72A A129G] the value was 0.57; for UACGUAGGUGGUUUUCCCCUGAUAGUGCUAAGGGGGCCUGGAGGUUUGGACUGGGCAGAGCUCAACACAGCGUGGCAAUGUGGCUGAGGCUAGACUGCCUCUCUGGAUUCCUCGUCACUCAGCAGGGCAUCUCUGAGGUAAAUGCC [A43G A79U U87A A138G G139U], 0.04. For UACGUAGGUGGUUUUCCCCUGAUAGUGCUAAGGGGGCCUGGAGGUUUGGACUGGGCAGAGCUCAACACAGCGUGGCAAAGUGGCUAUGGCUAGACUGCCUCUCUGGAUUCCUCGUCACCCAGCAGGGCAUCUCUGAGAGAAAUGCC [A43G G86A U119C] the value was 0.06; for UACGUAGGUGGUUUUCCCCUGAUAGUGCUAAGGGGGCCUGGAGGUUUGGACAGGGCAGGGCUCAACACAGCGUGGCAAAGUGGCUGUGGCUAGACUGCCUCUCUGGAUUCCUCGUCACUCAGCAGGGCAUCUCUGAGAGAGAUGCC [A43G U52A A59G A141G], 0.03.

UACGUAGGUGGUUUUCCCCUGAUAGUGCUAAGGGGGCCUGGAGGUUUGGACUGAGCAGGGCUCAACACAGCGUGGCAAAGUGGCUGUGGCUAGACUGCCUCUCUGGAUUCCUCGUCACUCAGCAGGGCAUCUCUGAGAGAAAUGCC [A43G G54A A59G]: the self-cleavage was found to be 0.09.

On to UACGUAGGUGGUUUUCCCCUGAUAGUGCUAAGGGGGCCUGGAGGUUUGAACUGGGCAGAGCUCAACACAGCGUGGCAAAGUGGCUGUGGCUAGAAUGCCUCUCUGGAUUCCUCGUCACUCAGCAGGGCAUCUCUGAGAGUAAUGCC [A43G G49A C95A A140U], for which the self-cleavage worked out at 0.04.

On to UACGUAGGUGGUUUUCCCCUGAUAGUGCUAAGGGGGCCUGGAGGUUUGGACUGGGCAGAGCUCAACACAGCGUGGCAAAGUGGCUGUGGCUAGACUGCCUCUCUGGAUUCCUCGUCUCUCAGCAGGGCAUCUCUGAGGGAAAUGCC [A43G A117U A138G], for which the self-cleavage worked out at 2.06.

Take UACGUAGGUGGUUUUCCCCUGAUAGUGCUAAGGGGGCCUGGAGGUUCGGACUGGGCAGAGCUCAACACAGCGCGGCAAAGUGGCUGUGGCUAGACUGCCUCUCUGGAUUCCUCGUCACUCAGCAGGGCAUCUCUGAGAGAUAUGCC [A43G U47C U73C A141U]: the self-cleavage is 1.15. For UACGUAGGUGGUUUUCCCCUGAUAGUGCUAAGGGGGCCUGGAGGUUUUGACUGGGCAGAGCUCAACACAGCGUGGCAAAGUGGCAGUGGCUAGACUGCCUCUCUGGAUUCCUCGUCACUCAGCAGGGCAUCUCUGAGAGAAAUGCC [A43G G48U U85A] the value was 0.07. As to UACGUAGGUGGUUUUCCCCUGAUAGUGCUAAGGGGGCCUGGAGGUUUGGACUGGGCAGAGCUCAACACAGAGUGGCAAAGUGGCUGUGGCUAGACUGCCUCUCUGGAUUCCUCGUCAUUCAGCAGGGCAUCUCCGAGAGAAGUGCC [A43G C71A C118U U134C A142G], the self-cleavage is 0.13.

As to UACGUAGGUGGUUUUCCCCUGAUAGUGCUAAGGGGGCCUGGAGGUUUGGACUGGGCAGAGCUCAACACAGCGUGGCAAAGUGGCUGUGGCUAGACUGCCUCUCUGGAUUCCUCGUCACUCAGCAGGGCAUCUCUGAGAGGAAUGCG [A43G A140G C146G], the self-cleavage turned out to be 0.7. Regarding UACGUAGGUGGUUUUCCCCUGAUAGUGCUAAGGGGGCCUGGAGGCUUGGACUGGGCUGAGCUCAACACAGCGUGGCAAAGUGGCUGUGGCUAGACUGCCUCUCUGGAUUCCUCGUCACUCAGCAGGGCAUCUCCGAGAGGAAUGCC [A43G U45C A57U U134C A140G], the self-cleavage was 0.13. Consider UACGUAGGUGGUUUUCCCCUGAUAGUGCUAAGGGGGCCUGGAGGUUUGGACUGGGCAGAGCUCAACACAGCAUGGCAAAGUGGCUGUGGCUAGACUGCCUCUCUGGAUUCCUCGUCACUCAGCAGGGCAUCUCUGAGAGAAACGCC [A43G G72A U143C], for which the self-cleavage is 1.92. For UACGUAGGUGGUUUUCCCCUGAUAGUGCUAAGGGGGCCUGGAGGUUUGGACUGGGCAGAGCUCAACACAGCGUGGCAAAGUGACUGUGGCUAGACUGCCUCUCUGGAUACCUCGUCCCUCAGCAGGGCAUCUCUGAGAGAUAUGCC [A43G G83A U109A A117C A141U] the value was 1.48. Turning to UACGUAGGUGGUUUUCCCCUGAUAGUGCUAAGGGGGCCUGGAGGUAUGGACUGGGCAGAGCUCAACACAGCGUGGCAAAGUGGCCGUGGCUAGACUGCCUCUCUGGAUUCCUCGUCACUCAGCAGGGCAUCUCUGAGAGAAAUGCC [A43G U46A U85C], the self-cleavage was 0.12.

UACGUAGGUGGUUUUCCCCUGAUAGUGCUAAGGGGGCCUGGAGGUAUGGACUGGGCAGAGCUCAACACAGCGUGGCAAAGUGGCUGUGGCUAGACCGCCUCCCUGGAUUCCUCGUCACUCAGCAGGGCAUCUCUGAGAGCAAUGCC [A43G U46A U96C U102C A140C]: the self-cleavage is 0. To UACGUAGGUGGUUUUCCCCUGAUAGUGCUAAGGGGGCCUGGAGGUUUGGACUGGGCAGAGCUCAACACAGCGUGGCAAAGUGGCUGUGGCUAGACUGCCUCUCUGGAUUCCUCGUCACUCUGCAGGGUAUCUCUGAGAGAACUGCC [A43G A121U C128U A142C] belongs 1.27; to UACGUAGGUGGUUUUCCCCUGAUAGUGCUAAGGGGGCCUGGAGGUUUGGACUGGGCAGAGCUCAAUGUAGCGUGGCAAAGUGGCUGUGGCUAGACUGCCUCUCUGGGCUCCUCGUCACUCAGCAGGGCAUCUCUGAGAGAAAUGCC [A43G C66U A67G C68U A107G U108C], 0.2; to UACGUAGGUGGUUUUCCCCUGAUAGUGCUAAGGGGGCCUGGAGGUAUGGACUGGGCAGAGCUCAACACAGCGUGGCAAAGUGGCUGUGGCUAGUCUGCCUCUCUGGAUUCCUCGUCACUCAGCAGGGCAUCUCUGAGAGAAAUGCC [A43G U46A A94U], 0.15.

As for UACGUAGGUGGUUUUCCCCUGAUAGUGCUAAGGGGGCCUGGAGGUUAGGACUGGGCAGAGCUCAACACAGCGUGGCAAAGUGGCUGUGGCUAGACUGCCUCUCUGGAUUCCUCGUCACUCGGCAGGGCAUCUCUGAGAGAAAUGCC [A43G U47A A121G], the self-cleavage came to 1.6. To UACGUAGGUGGUUUUCCCCUGAUAGUGCUAAGGGGGCCUGGAGGUUUGGACUGGGCAGAGCUCAACACAGCGUGGCAAAGUGGCUGUGUCUAGACUGCCCCUCUGGAUUCCUCGUCACUCAGCAGGGCAUCUCUGAGAGAAAUGCC [A43G G89U U100C] belongs 0.07; to UACGUAGGUGGUUUUCCCCUGAUAGUGCUAAGGGGGCCUGGAGGCUUGGACUGGGCAGAGCUCAACACAGCGUGGCAAAGUGGCUGUGGCUAGACUGCCUCUCCGGAUUCCUCGUCACUCAGCAGGGCAUCUCUGAGAGAAAUGCC [A43G U45C U104C], 1.31. To UACGUAGGUGGUUUUCCCCUGAUAGUGCUAAGGGGGCCUGGAGGUUUGGACUGGGCAGAGCUCAACACAGCGUGGUAAAGUGGCUGUGGCUAGACUGCCUCUCUGGAUUCCUCGUCACUCAGCAGGGCAUCUCCGAGAGAAAUGCC [A43G C76U U134C] belongs 2.42; to UACGUAGGUGGUUUUCCCCUGAUAGUGCUAAGGGGGCCUGGAGGUUUGGACUGGGCAGAGCUCAACACAGCGUGGCAAAGUGGCUGUGGCUAUACUGCCUCUCUGGAUUCCUCGUCACUCAGCAGGGCAUCUCUGAGAGAGAUGCC [A43G G93U A141G], 0.07; to UACGUAGGUGGUUUUCCCCUGAUAGUGCUAAGGGGGCCUGGAGGUUUGGACUGGGCAGAACUCAACACAGCGUGGCAAAGUGGCUGUGGCUAGACUGCCUCUCUGGAUUCCUCGUCACUCAGCAGGGCACCUCUGAGAGAAAUGCC [A43G G60A U130C], 0.04. To UACGUAGGUGGUUUUCCCCUGAUAGUGCUAAGGGGGCCUGGAGGCUUGGACUGGGCAGAGCUCAACACAGCGUGGCAAAGAGGCUGUGGCUAGACUGCCUCUCUGGAUUCCUCGUCACUCAGCAGGGCAUCUCUGAGAGAAAUGCC [A43G U45C U81A] belongs 0.85; to UACGUAGGUGGUUUUCCCCUGAUAGUGCUAAGGGGGCCUGGAGGCUUGGACUGUGCAGAGCUCAACACAGCGUGGCAAAGUGGCUGUGGCUAGACUGCCUCUCUGGAUUCCUCGUCACUCAGCAGGGCAUCUCUGAGAGAAAUGCC [A43G U45C G54U], 0.31; to UACGUAGGUGGUUUUCCCCUGAUAGUGCUAAGGGGGCCUGGAGGUUUGGACUGGGCAGAGCUCAACACAGCCUGGCAAAGCGGCUGUGGCUAGACUGCCUCUCUGGAUUCCUCGUCACUCAGCAGGGCAUCUCUGAGUGAAACGCC [A43G G72C U81C A138U U143C], 0. As for UACGUAGGUGGUUUUCCCCUGAUAGUGCUAAGGGGGCCUGGAGGUUUGGACUGGGCAGAGCUCAACACAGUGUGGCAAAGUGGCUGUGGCUAGACUGCCUCUCUGGAUUCCUCGUCGCUCAGCAGGGCAUCUCUGAGAGAAAUGCC [A43G C71U A117G], the self-cleavage turned out to be 1.09.

Take UACGUAGGUGGUUUUCCCCUGAUAGUGCUAAGGGGGCCUGGAGGUUAGGACUGGGCUGAGCUCAACACAGCGUGGCAAAGUGGCUGUGGCUAGACUGCCUCUCUGGAUUCCUCGUCACUCAGCAGGGCAUCUCUGAGAGAAAUGCC [A43G U47A A57U]: the self-cleavage turned out to be 0.12. For UACGUAGGUGGUUUUCCCCUGAUAGUGCUAAGGGGGCCUGGAGGUUUGAACUGGGCAGAGCUCAACUCAGCGUGGCAAAGUGGCUGUGGCUAGACUGCCUCUCUGGAUUCCUCCUCACUCAGCAGGGCAUCUCUGAGAGAAAUGCC [A43G G49A A67U G114C] the value was 0.07; for UACGUAGGUGGUUUUCCCCUGAUAGUGCUAAGGGGGCCUGGAGGUUUGGACUGGGAAGAGCUCUACACAGCGUGGCAAAGUGGCUGUGGCUAGACUGCCUCUCUGGAUUCCUCGUCACUCAGCAGGCCAUCUCUGAGAGAAAUGCC [A43G C56A A64U G127C], 0.06; for UACGUAGGUGGUUUUCCCCUGAUAGUGCUAAGGGGGCCUGGAGGUUUGGACUAGGCAGAGCUCAACACUGCGUGGCAAAGUGGCUGUGGCUAGACUGCCUCUCUGGGUUCCUCGUCACUCAGCAGGGCAUCUCUGAGAGAAAUGCC [A43G G53A A69U A107G], 0.05.

As to UACGUAGGUGGUUUUCCCCUGAUAGUGCUAAGGGGGCCUGGAGGUUAGGACUGGGCAGAGCUCAACACAGCGUGGCAUAGUGGCUGUGGCUAGACUGCCUCUCUGGAUUCCUCGUCUCUCAGCAGGACAACUCUGAGAGAAAUGCC [A43G U47A A78U A117U G127A U130A], the self-cleavage is 1.97. For UACGUAGGUGGUUUUCCCCUGAUAGUGCUAAGGGGGCCUGGAGGUUUGGACUGGGCAGAGCUCAACACAGCGUGGCAAAGUGGCUGUGGCUAGAUUGCCUCUCUGGAUUCCUCGUCGCCCAGCAGGGCAUCUCUGAGAGAGAUGCC [A43G C95U A117G U119C A141G] the value was 0.17; for UACGUAGGUGGUUUUCCCCUGAUAGUGCUAAGGGGGCCUGGAGGUUAGGACUGGGCAGGGCUCAACACAGCGUGGCAAAGUGGCUGUGGCUAGACUGCCUCUCUGGAUUCCUCGUCACUCAGCAGGGCAUCUCUGAGAGAAAUGCC [A43G U47A A59G], 0.03. To UACGUAGGUGGUUUUCCCCUGAUAGUGCUAAGGGGGCCUGGAGGUUCGGACUGGGCAGAGCUCAACACAGCGUGGCAAAGUGGCUGAGGCUAGACUGCCUCUCUGGAUUCCUCGUCACUCAGCAGGGCAUCUCUGAGAGAAAUGCC [A43G U47C U87A] belongs 0.2; to UACGUAGGUGGUUUUCCCCUGAUAGUGCUAAGGGGGCCUGGAGGUUUGGACUAGGCAGAGCUCAACACAGCGUGGCAAAGUGGCUGUGGCUAGACUGCCUCUCUGGAUUCCUCGGCACCCAGCAGGGCAUCUCUGAGAGAAAUGCC [A43G G53A U115G U119C], 0.89.
